SMILES strings stand for the structures. For part of its entries the source gives two or more results. Only these are listed. There may be further records. The records of an entry read as repeated measurements on other runs, samples or individuals; one of them may be the mean.

Two compounds from US20190077766A1, “Compositions For APP-Selective BACE Inhibition And Uses Therefor” (NantNeuro, LLC, priority 2015, published 2019) can be followed below.

This assay deals with T1, BACE1 (Homo sapiens, UniProt P56817).
T1 construct: purchased R&D 931-AS-050
T1 sequence (P56817 46-457 limits assumed): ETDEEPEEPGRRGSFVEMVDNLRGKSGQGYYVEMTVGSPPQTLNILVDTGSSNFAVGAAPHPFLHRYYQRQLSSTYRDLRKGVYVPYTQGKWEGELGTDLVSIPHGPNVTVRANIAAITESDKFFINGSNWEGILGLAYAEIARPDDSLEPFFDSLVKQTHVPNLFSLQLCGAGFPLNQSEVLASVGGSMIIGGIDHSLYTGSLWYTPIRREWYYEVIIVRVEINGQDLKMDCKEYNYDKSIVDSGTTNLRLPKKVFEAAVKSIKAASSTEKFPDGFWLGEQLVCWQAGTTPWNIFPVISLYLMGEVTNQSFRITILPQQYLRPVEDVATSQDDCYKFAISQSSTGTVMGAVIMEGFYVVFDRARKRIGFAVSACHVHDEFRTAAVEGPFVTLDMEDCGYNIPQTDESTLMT
Description: in vitro BACE inhibition assay (Primary BACE1 IC50). The format is biochemical. To be noted: Table 4; several values in a cell = several determinations. An excerpt: ABBI Assay: APP Binding BACE Inhibitor (ABBI) activity of any of the compounds described herein can readily be verified using, for example, assays described herein. Basically, in certain embodiments a pair the assays are utilized to identify ABBI compounds that inhibit BACE cleavage of the MBP-C125 APP substrate, resulting in the inhibition of the production of C99 and the β-site peptide substrate (P5-P5′) and also interacts with APP, for example, as measured by surface plasmon resonance (SPR) analysis. In one illustrative embodiment, an MBP-C125 APP695 wt fusion protein can be used as one of the substrates and the second substrate can be the commercially available P5-P5′ fluorescence substrate.

Regarding `Cc1cc(C2(c3cc(F)cc(F)c3)N=C(N)N(C)C2=O)ccc1OC(F)F` (centres unmarked) [FAH-03], the IC50 is 530 nM, 4.5 µM, 5.7 µM [one cell].
As for `Cc1cc(C2(c3cccc(F)c3)N=C(N)N(C)C2=O)ccc1OC(F)F` (centres unmarked) [FAH-17], the IC50 was 150 nM, 90 nM, 370 nM, 780 nM, 1.3 µM, 820 nM [one cell].

The term IC50 denotes the concentration that gives 50% inhibition.
